Assay results: PubChem BioAssay AID1645887 (National Center for Advancing Translational Sciences (NCATS), 2021)
Several values for one entry are separate records, joined by “and”; a condition that tells them apart may be missing. Equal values may be shown once. Screen size: about 16,000 compounds; about 40 (0.2%) were called active. Not shown: some 1% with an inconclusive outcome. The call rests on the fitted dose curve; in most records, active means well fitted activation curve with a large enough effect; inconclusive means small, poorly fitted or top-dose-only effect, or another doubt; inactive means no such curve, though single readings can be large or run the other way. The list shows a part of the results. Non-standard residues stand in square brackets, D forms with d. Residues, ends and D or L forms follow the SMILES beside them. Nle = CCCC[C@H](N)C(=O)O

Molecular target: Rap guanine nucleotide exchange factor 4 (Homo sapiens) (UniProt Q8WZA2)
Assay: Validation qHTS for agonist of cAMP-regulated guanine nucleotide exchange factor 4 (EPAC2);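 further: exchange makes BODIPY-GDP fluorescence drop when released from Rap1B; series mostly up to about 150 µM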
Settings: EPAC2 Rap1B BODIPY-GDP exchange, fluorescence; activation: hits give high values
Procedure, shortened: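 Fluorescent exchange assay: 100 nM EPAC2 with 250 nM RAP1B-BODIPY-GDP and 50 uM GDP; compound added, 5 min at room temperature, then read (ex 480/em 540 nm) every 5 min for 30 min. Normalized to 6.5 mM cAMP agonist control.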
On the % scale 0 is the no-effect control and ±100 the full control effect.

Sequence of UniProt Q8WZA2 (Q8WZA2 whole entry, looked up): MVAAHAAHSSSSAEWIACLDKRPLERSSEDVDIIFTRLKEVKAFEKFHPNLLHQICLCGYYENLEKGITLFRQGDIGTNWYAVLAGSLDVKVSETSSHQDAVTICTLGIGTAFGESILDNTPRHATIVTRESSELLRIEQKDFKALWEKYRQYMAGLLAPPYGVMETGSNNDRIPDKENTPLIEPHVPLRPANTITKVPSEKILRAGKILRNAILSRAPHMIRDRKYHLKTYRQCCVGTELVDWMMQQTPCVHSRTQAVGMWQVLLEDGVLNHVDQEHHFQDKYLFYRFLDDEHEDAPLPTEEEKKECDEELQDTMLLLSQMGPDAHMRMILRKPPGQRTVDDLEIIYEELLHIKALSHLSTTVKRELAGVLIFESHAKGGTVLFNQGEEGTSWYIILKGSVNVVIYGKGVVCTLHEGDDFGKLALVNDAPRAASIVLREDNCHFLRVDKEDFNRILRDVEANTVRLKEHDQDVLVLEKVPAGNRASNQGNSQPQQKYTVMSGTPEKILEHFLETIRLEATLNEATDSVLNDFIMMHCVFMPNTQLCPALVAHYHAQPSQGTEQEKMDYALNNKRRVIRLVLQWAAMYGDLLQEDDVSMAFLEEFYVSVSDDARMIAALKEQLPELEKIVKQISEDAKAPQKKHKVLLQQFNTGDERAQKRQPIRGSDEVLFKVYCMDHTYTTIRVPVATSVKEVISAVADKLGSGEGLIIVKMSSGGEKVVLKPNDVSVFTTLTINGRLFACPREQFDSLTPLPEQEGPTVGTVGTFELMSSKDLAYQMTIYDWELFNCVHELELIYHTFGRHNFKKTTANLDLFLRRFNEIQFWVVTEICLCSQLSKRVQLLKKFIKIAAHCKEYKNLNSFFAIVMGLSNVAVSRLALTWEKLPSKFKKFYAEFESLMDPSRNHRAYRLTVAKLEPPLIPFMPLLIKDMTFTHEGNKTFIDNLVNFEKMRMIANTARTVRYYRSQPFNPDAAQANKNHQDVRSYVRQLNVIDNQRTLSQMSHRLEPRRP

activation, inactive:
NC(=O)c1cccc(N)c1 -22.6% and 11.6% and -11.6%
COCC(=O)N1CCC2(CCCN(C(=O)Nc3ccccc3)C2)CC1 -27.3%
O=C(c1cscn1)N1CCOc2ccc(CN3CCC(Oc4cccnc4)CC3)cc2C1 0.273%
CCCCC[C@H](O)/C=C/C=C\CCCCCCCC(=O)O -6.11% and -2.21%
COc1cc(=O)n2c(c1C(=O)N(C)Cc1nonc1C)CCN(C(=O)c1cc(C)ccc1C)CC2 -16.8%
CC(=O)N1CCC2(CC1)CCN(C(c1ccccc1)c1ccccc1)CC2 -17.6%
COc1ccccc1N1CCN(CCCC(=O)c2ccc(F)cc2)CC1 -6.44%
NC(=O)NS(=O)(=O)c1ccc(N)cc1 -6.9%
CN(C)CCc1cc2c(c3c1ccc1ccccc13)OCO2 -8.33%
COc1ccccc1CN1CCC2(CC1)CCN(C(=O)c1cccc(F)c1)CC2 -2.95%
O=C(O)CCCC[C@@H]1SC[C@H]2NC(=O)N[C@@H]12 -10%
Cc1cc(C(=O)NCC2CCC3(CCN(Cc4ccc(F)cc4)CC3)O2)n(C)n1 (centres undefined) -12.7%
CCC(CN)CC(C)CCNCC(O)CNCC(C)CC(CC)CN (centres undefined) -7.55%
O=C(c1cn(C2CCCN(Cc3cccc(Oc4ccccc4)c3)C2)nn1)N1CCCC1 (centres undefined) -7.14%
Cc1noc(C)c1-c1ccc2ncnc(Nc3ccc(F)cc3)c2c1 -13.1%
CC(C(=O)O)c1ccc(C(=O)c2ccccc2)s1 (centres undefined) 2.51%
O=C1CCN(Cc2ccc(-c3ccccc3)cc2)CCN1Cc1ccccn1 -2.36%
NC(CSCSCC(N)C(=O)O)C(=O)O (centres undefined) -5.55%
Cc1cc(C(=O)Nc2ccccc2-c2nc(CNC(=O)c3cscn3)c(C)o2)c(C)o1 -11.3%
CN(C)c1nc(-c2ccoc2)nc2ccccc12 -6.98%
Cc1ccccc1-c1nccc(NCCN2CCOCC2)n1 -29.4%
CS(=O)(=O)OCC(O)C(O)COS(C)(=O)=O (centres undefined) -1.39%
O=C(C[n+]1cccc2cc(Cl)ccc21)c1ccc(Br)cc1 -5.01%
O=C(c1cccc(F)c1)N1CCC2(CC1)CCN(c1ncccn1)CC2 -7.49%
CC(N)CCCP(=O)(O)O (centres undefined) 9.02%
CC(=O)N(CC(O)CN(C(C)=O)c1c(I)c(C(=O)NCC(O)CO)c(I)c(C(=O)NCC(O)CO)c1I)c1c(I)c(C(=O)NCC(O)CO)c(I)c(C(=O)NCC(O)CO)c1I (centres undefined) -25.3%
CO[C@H]1C[C@@H]2CC[C@@H](C)[C@@](O)(O2)C(=O)C(=O)N2CCCC[C@H]2C(=O)OC([C@H](C)C[C@@H]2CC[C@@H](O)[C@H](OC)C2)CC(=O)[C@H](C)/C=C(\C)[C@@H](O)[C@@H](OC)C(=O)[C@H](C)C[C@H](C)/C=C/C=C/C=C/1C (some centres undefined) -26.4%
CCS(=O)(=O)NCc1c(C)ncc2c1CCN(C(=O)c1ccc(F)cc1)C2 4.04%
Nc1ncnc2n[nH]c(Nc3ccc(F)cc3)c12 -19.6%
CCCCCCCCCCCCC(=O)N1CCCC[C@H]1CNC(=O)[C@@H](N)CCCCN -28.5%
CC(C)C[C@@H](CSc1ccccc1)N1CCN(CC(C)C)CCC1=O -12.9%
O=c1c(-c2ccc(Cl)cc2)nc2cnc(N3CCOCC3)nc2n1C[C@H]1CCCO1 4.27%
CC(=O)OCC(=O)[C@]1(O)C(C)CC2C3CCC4=CC(=O)C=C[C@@]4(C)[C@]3(F)C(O)C[C@@]21C (some centres undefined) 3.85%
Cc1c(C)n(Cc2ccccc2)c2ccc(C(=O)OCCN(C)C)cc12 3.34%
CC(=O)N1CCC2(CCCN(Cc3nccs3)C2)CC1 -2.94%
CCC(C(=O)NC(N)=O)c1ccccc1 (centres undefined) -4.88%
COc1ccccc1-c1nc(Nc2ccncc2)c2ccccc2n1 -26.6%
COC(=O)c1c(OCc2ccccn2)cc(=O)n2c1CCN(Cc1ccc3c(c1)CCCN3C)CC2 -12.3%
O=C(c1ccncc1)N1CCC2(CC1)CCN(c1ccccn1)CC2 -18.9%
c1ccc(CN(CC2=NCCN2)c2ccccc2)cc1 3.37% and -19.3% and -10.4%
CC1CCC(=O)N(CCC#N)CC1 (centres undefined) -27%
CCN(c1nc(N)c(C(=O)N=C(N)N)nc1Cl)C(C)C -19.5%
O=C1NC(CC(=O)N2CCC(n3c(C4CCC4)nc4cccnc43)CC2)c2ccccc21 (centres undefined) -8.07%
Clc1ccc(N2CCN(Cc3cc4ccccn4n3)CC2)cc1 -13.5%
O=C(O)C1=CCCN(CCON=C(c2ccccc2)c2ccccc2)C1 -5.62% and 5.47% and -53.4%
Cn1c(=O)c(-c2ccc(Cl)cc2)nc2cnc(N3CCOCC3)nc21 -9.57%
COCCn1c(=O)c(-c2ccc(F)cc2)nc2cnc(N3CCOCC3)nc21 -9.18%
O=P(O)(O)OP(=O)(O)OP(=O)(O)O -8.51%
CN(C)CC/C=C1/c2ccccc2COc2ccc(CC(=O)O)cc21 -8.04%
O=C(c1cnccn1)N1CCC2(CC1)CCN(c1ccncc1)CC2 -0.326%
CC(C)(C)[C@H]1CCC(=O)N([C@H](CSc2ccc(Br)cc2)Cc2ccccc2)CC1 -8.77%
CCC(=O)OC1CCC2C3CCc4cc(O)ccc4C3CC[C@]12C (some centres undefined) -8.28%
CCCC[C@@H](C=O)NC(=O)[C@H](CC(C)C)NC(=O)[C@H](CC(C)C)NC(C)=O (Ac-Leu-Leu-[Nle]-aldehyde) 7.05%
COc1cc(OC)c2c(=O)c(-c3ccc4c(c3)OCO4)coc2c1 -7.12%
Cc1oc(-c2ccccc2NC(=O)c2ccccn2)nc1CNC(=O)c1ccc(Oc2ccccc2)o1 -21.1%
O=c1[nH]cnc2c1ncn2C1OC(CO)C(O)C1O (centres undefined) 9.84% and -19.4%
CC(=O)N1CCC2(CC1)CN(c1ccncc1)C2 -20.8%
CN(Cc1cnc2nc(N)nc(N)c2n1)c1ccc(C(=O)N[C@@H](CCC(=O)O)C(=O)O)cc1 -13.1% and 0.252% and -11.3%
Cc1cnc(SCc2ccccn2)nc1C1CCCN(C(=O)c2cccc(-c3cccc(F)c3)c2)C1 (centres undefined) 13.2%
O=C(COc1ccc(Cl)cc1)N1CCN(Cc2ccc3c(c2)OCO3)CC1 -4.09%
N[C@@H](Cc1ccc(O)cc1)C(=O)O 2.4%
CNC(C)CCC=C(C)C (centres undefined) 0.211%
CCOc1ccc2nc3cc(N)ccc3c(N)c2c1 -1.31% and 10.5%
O=c1c(O)c(-c2ccc(O)c(O)c2)oc2ccccc12 -11.8%
CCN(CC)CCNc1ccc(CO)c2sc3ccccc3c(=O)c12 -6.8%
CC(=O)C1CCC2C3CC(C)C4=CC(=O)CC[C@@]4(C)C3C(O)C[C@@]12C (some centres undefined) -4.88%
CC(=O)OC[C@H]1O[C@@](COC(C)=O)(O[C@H]2O[C@H](COC(C)=O)[C@@H](OC(C)=O)[C@H](OC(C)=O)[C@H]2OC(C)=O)[C@@H](OC(C)=O)[C@@H]1OC(C)=O -9.28%
O=c1c(CCc2ccccc2)nc2cnc(Oc3ccccc3)nc2n1C[C@H]1CCCO1 -7.84%
CCCCCCCCCC(=O)NC(CN1CCOCC1)[C@H](O)c1ccccc1 (some centres undefined) -88.2%
Cc1ccc(SC[C@H](C)CN2CC[C@H](C)CCC2=O)cc1 -18.1%
COc1ccccc1CN1CC[C@@]2(CCCN(S(=O)(=O)c3ccccc3)C2)C1 -11.6%
COc1ccc(-c2cn(CCc3c[nH]c4ccccc34)nn2)cc1 -30.2%
CCc1noc(C)c1C(=O)N1CCOc2ccc(CN3CCCC(C(=O)c4cccnc4)C3)cc2C1 (centres undefined) -0.865%
Cc1ccsc1/C=C/C1=NCCCN1C -3.35% and -0.108%
CCCCCCCCCCCCCCCCOP(=O)([O-])OCC[N+](C)(C)C -33.6%
Cc1cc(NS(=O)(=O)c2ccc(N)cc2)nc(C)n1 -9.96%
CN1CCN(c2ncc3nc(-c4ccc(Cl)cc4)c(=O)n(Cc4cccs4)c3n2)CC1 -1.85%
CC(Cc1ccc(O)c(O)c1)(NN)C(=O)O (centres undefined) -8.8%
CCCn1c(=O)[nH]c2nc(-c3ccc(S(=O)(=O)O)cc3)[nH]c2c1=O -10.8%
O=c1cnc2cnc(Nc3ccccc3)nc2n1Cc1cccs1 6.89%
C[N+](C)(C)CCOC(=O)CCC(=O)OCC[N+](C)(C)C -21.8% and -17.3%
Cc1ccccc1-c1nc(N(C)Cc2ccco2)c2ccccc2n1 10.8%
C=CC1=C(C(=O)O)N2C(=O)[C@@H](NC(=O)/C(=N\O)c3csc(N)n3)[C@H]2SC1 (stereo in doubt) -21.4% and -10.5%
Cc1oc(-c2cccc(NC(=O)c3ccccc3)c2)nc1CNC(=O)c1cnc2ccccn2c1=O -14.2%
